{"source": "PubChem BioAssay (NCI)", "test_in_all_cases": "DTP human tumour cell line panel, 48 h", "key": {"HT29 colon": {"system": "HT29 colon"}, "CAKI-1 renal": {"system": "CAKI-1 renal"}, "786-0 renal": {"system": "786-0 renal"}, "SNB-75 CNS": {"system": "SNB-75 CNS"}, "SR leukemia": {"system": "SR leukemia"}, "M14 melanoma": {"system": "M14 melanoma"}, "HCT-116 colon": {"system": "HCT-116 colon"}, "K-562 leukemia": {"system": "K-562 leukemia"}, "SK-MEL-2 melanoma": {"system": "SK-MEL-2 melanoma"}, "OVCAR-8 ovarian": {"system": "OVCAR-8 ovarian"}, "HL-60(TB) leukemia": {"system": "HL-60(TB) leukemia"}, "IGROV1 ovarian": {"system": "IGROV1 ovarian"}, "SW-620 colon": {"system": "SW-620 colon"}, "OVCAR-5 ovarian": {"system": "OVCAR-5 ovarian"}, "NCI/ADR-RES ovarian": {"system": "NCI/ADR-RES ovarian"}, "LOX IMVI melanoma": {"system": "LOX IMVI melanoma"}, "HOP-92 NSCLC": {"system": "HOP-92 NSCLC"}, "RPMI-8226 leukemia": {"system": "RPMI-8226 leukemia"}, "SN12C renal": {"system": "SN12C renal"}, "SF-295 CNS": {"system": "SF-295 CNS"}}, "note": "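Values below derive from 48-hour exposures of cells grown in 96-well plates, with endpoints linearly interpolated between the two concentrations bracketing the appropriate inhibition level. TGI: total growth inhibition.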 A number of entries come with more than one value. The list is limited to them. There may be further records. For some assays here: Records of one sample usually come from different ranges of test concentrations, not given here; some values may only mark the edge of a range. For some assays here: Values that stand side by side are repeats across runs, samples, wells, individuals or studies. What stands in brackets tells the records apart. The letters are not those of the source and start again with each entry.", "data": [{"smiles": "COc1ccc2c(c1)nnc1c3cccnc3[nH]c21", "values": [{"measurement": "TGI", "setting": "HT29 colon", "result": "2.73 µM and > 100 µM"}, {"measurement": "TGI", "setting": "CAKI-1 renal", "result": "339 nM and > 100 µM"}, {"measurement": "TGI", "setting": "786-0 renal", "result": "3.28 µM and > 100 µM"}, {"measurement": "TGI", "setting": "SNB-75 CNS", "result": "8.19 µM and > 100 µM"}, {"measurement": "TGI", "setting": "SR leukemia", "result": "217 nM and > 100 µM"}, {"measurement": "TGI", "setting": "M14 melanoma", "result": "5.33 µM and > 100 µM"}, {"measurement": "TGI", "setting": "HCT-116 colon", "result": "928 nM and > 100 µM"}, {"measurement": "TGI", "setting": "K-562 leukemia", "result": "1.84 µM and > 100 µM"}, {"measurement": "TGI", "setting": "SK-MEL-2 melanoma", "result": "8.18 µM and > 100 µM"}, {"measurement": "TGI", "setting": "OVCAR-8 ovarian", "result": "50 µM and 2.45 µM"}, {"measurement": "TGI", "setting": "HL-60(TB) leukemia", "result": "635 nM and > 100 µM"}, {"measurement": "TGI", "setting": "IGROV1 ovarian", "result": "3.54 µM and > 100 µM"}, {"measurement": "TGI", "setting": "SW-620 colon", "result": "1.67 µM and > 100 µM"}]}, {"smiles": "CNC(=O)c1cc(Oc2ccc(NC(=O)Nc3cc(C(C)(C)C)nn3-c3ccc4ncccc4c3)c(F)c2)ccn1", "values": [{"measurement": "TGI", "setting": "OVCAR-5 ovarian", "result": "8.95 µM [sample A, mean of 2 tests] and > 100 µM [sample B, 1 test]"}]}, {"smiles": "CC1OC(O[C@@H]2C=C3CC[C@@H]4[C@H](CC[C@]5(C)[C@@H](c6ccc(=O)oc6)CC[C@]45O)[C@@]3(C)CC2)C(O)C(OC2OC(CO)C(O)C(O)C2O)C1O", "note": "(stereo partly drawn)", "values": [{"measurement": "TGI", "setting": "NCI/ADR-RES ovarian", "result": "1.48 nM and 50 nM"}, {"measurement": "TGI", "setting": "LOX IMVI melanoma", "result": "2.4 nM and 169 nM"}, {"measurement": "TGI", "setting": "HOP-92 NSCLC", "result": "1.93 nM and 30.3 nM"}, {"measurement": "TGI", "setting": "RPMI-8226 leukemia", "result": "1.8 nM and 25.6 nM"}, {"measurement": "TGI", "setting": "HCT-116 colon", "result": "1.2 nM and 28.2 nM"}, {"measurement": "TGI", "setting": "K-562 leukemia", "result": "0.416 nM and 57.1 nM"}, {"measurement": "TGI", "setting": "SN12C renal", "result": "0.482 nM and 539 nM"}, {"measurement": "TGI", "setting": "HL-60(TB) leukemia", "result": "0.1 nM and 539 nM"}, {"measurement": "TGI", "setting": "SF-295 CNS", "result": "1.73 nM and 26.4 nM"}]}]}
